In article PMC11406361, “Several orphan solute carriers functionally identified as organic cation transporters: Substrates specificity compared with known cation transporters” (The Journal of Biological Chemistry, 2024):
Where two headings read alike, the source gives them in different places.

Experiments:
[1] = molecular target: SLC35G3 (Homo sapiens, UniProt Q8N808); experiment: Uptake ratio screen, SLC35G3-overexpressing HEK293 over empty vector cells; format: cell-based; design: by amplifying the entire gene-of-interest within the HEK293 genome via a long-range PCR
Sequence of SLC35G3 (Q8N808 whole entry): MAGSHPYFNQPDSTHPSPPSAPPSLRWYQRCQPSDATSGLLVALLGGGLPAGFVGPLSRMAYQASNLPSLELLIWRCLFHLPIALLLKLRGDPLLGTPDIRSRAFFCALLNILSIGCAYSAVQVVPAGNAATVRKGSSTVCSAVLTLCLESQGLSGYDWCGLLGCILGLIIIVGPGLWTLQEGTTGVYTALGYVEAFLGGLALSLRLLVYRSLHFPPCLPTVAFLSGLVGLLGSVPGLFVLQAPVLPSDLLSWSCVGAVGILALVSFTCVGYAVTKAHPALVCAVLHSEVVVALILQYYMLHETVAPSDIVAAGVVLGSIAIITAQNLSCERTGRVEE

[2] = molecular target: T1, SLC35F4 (Homo sapiens, UniProt A4IF30); experiment: Uptake ratio screen, SLC35F4-overexpressing HEK293 over empty vector cells; format: cell-based; design: by amplifying the entire gene-of-interest within the HEK293 genome via a long-range PCR; conditions: 2.5 μM, 2 min
T1 sequence (A4IF30 1-521): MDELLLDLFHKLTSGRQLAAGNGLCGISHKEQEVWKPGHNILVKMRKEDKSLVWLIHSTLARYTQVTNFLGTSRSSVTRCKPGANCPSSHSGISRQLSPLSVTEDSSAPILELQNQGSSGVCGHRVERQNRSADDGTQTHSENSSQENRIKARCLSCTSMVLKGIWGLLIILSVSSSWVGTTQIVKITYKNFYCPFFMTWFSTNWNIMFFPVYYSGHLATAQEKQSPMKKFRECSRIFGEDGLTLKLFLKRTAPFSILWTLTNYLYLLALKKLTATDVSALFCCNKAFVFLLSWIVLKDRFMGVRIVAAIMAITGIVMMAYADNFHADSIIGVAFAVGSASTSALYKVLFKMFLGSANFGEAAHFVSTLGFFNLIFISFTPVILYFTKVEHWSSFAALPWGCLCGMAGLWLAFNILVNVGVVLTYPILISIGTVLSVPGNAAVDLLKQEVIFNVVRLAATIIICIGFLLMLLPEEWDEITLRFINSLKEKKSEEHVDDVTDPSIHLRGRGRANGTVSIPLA
Procedure: Typically discussed substrates of the proton organic-cation antiporter ([14]) are highlighted in dark green in Figure 1.
In preparation for transport experiments, 24-well plates were pre-coated with poly-D-lysine (Sigma-Aldrich) and 300,000 cells were plated per well and incubated for 48 h. Firstly, the 24-well plate was placed on a heating plate at 37 °C, and the cells were washed with 37 °C HBSS^+ buffer (Hank’s balanced salt solution supplemented with 10 mM Hepes and adjusted to pH 7.4; Thermo Fisher Scientific). The substance-of-interest, which was diluted in 37 °C HBSS^+ to a desired concentration, was added to the cells for exactly 2 min. […] For variations in seeded cell numbers between the cell lines, several wells were lysed in RIPA buffer and used for total protein quantification using a bicinchoninic assay ([74]) and bovine serum albumin as calibration.
The intracellular drug concentrations after transport experiments were analyzed by high-performance liquid chromatography coupled to tandem mass spectrometry analysis. […] After separation, the detection of substances was performed with an API 4000 tandem mass spectrometer (AB SCIEX, https://sciex.com/support/software-support/software-downloads), followed by quantification of results with the Analyst software (AB SCIEX, version 1.6.2). […]

[3] = 2.5 μM substrate, 2 min, HEK293

| Compound | Uptake data for SLC35G3, mean value (fold-increase over empty vector control) [1, 3] | Uptake data for SLC35G3, mean value (fold-increase over empty vector control) [1] | Uptake by SLC35F4 (in words) [2] |
| --- | --- | --- | --- |
| CN(C)CCOC(c1ccccc1)c1ccccc1.Cn1c(=O)c2[nH]c(Cl)nc2n(C)c1=O [Dimenhydrinate] | 1.37 | – | – |
| CC(C)NCC(O)COc1ccc(CC(N)=O)cc1 (stereo not shown) [Atenolol] | 0.97 | – | – |
| CC(C)[N+]1(C)[C@@H]2CC[C@H]1C[C@@H](OC(=O)C(CO)c1ccccc1)C2 (stereo partly shown) [Ipratropium] | – | 1.25 | – |
| CN1[C@@H]2C[C@@H](OC(=O)[C@H](CO)c3ccccc3)C[C@H]1[C@@H]1O[C@@H]12 [Scopolamine] | – | 1.64 | – |
| CCCCc1oc2ccccc2c1C(=O)c1cc(I)c(OCCN(CC)CC)c(I)c1 [Amiodaron] | 1.35 | – | – |
| O=C(O)COCCN1CCN(C(c2ccccc2)c2ccc(Cl)cc2)CC1 (stereo not shown) [Cetirizine] | 1.21 | – | – |
| CN1CC[C@]23c4c5ccc(O)c4O[C@H]2[C@@H](O)C=C[C@H]3[C@H]1C5 [Morphine] | – | 1.20 | – |
| CCN(CC)CC(=O)Nc1c(C)cccc1C [Lidocaine] | 2.48 | – | – |
| CN(C)CCOC(c1ccccc1)c1ccccc1 [Diphenhydramine] | 1.53 | – | enhanced cell uptake |
